Measured values taken from the supplement of paper PMC5919970.
Where a name gives a salt, the structure may show the parent alone. Whole data set: some 2,000 compounds, median “fractional viability relative to vehicle” near 0.92, cut for the lowest 2% near 0.11. The list shows a part of the results.

Tested on: TYKNU
Experiment: fractional viability relative to vehicle; TYKNU is a high-grade serous ovarian cancer line; higher = less growth inhibition
Conditions: 72 h, genotype: OPA1 knockout (sgOPA1 #2)
How it was run: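 TYKNU control cells or lentiCRISPRv2 knockout derivatives were seeded at 500 cells per well into drug-stamped 384-well plates holding a ~2100-compound library at 2 or 10 μM, in duplicate. Cells were grown at 37 °C in 5% CO2 in RPMI 1640 with 10% FBS, and drug treatment lasted 72 h. Viability was read by Cell Titer Glo luminescence. Duplicate treatment wells were averaged and normalised to duplicate control wells from the same plate position.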

COc1ccccc1-c1cc(Nc2cccc(CS(N)(=O)=O)c2)ncn1
fractional viability (2uM): 0.952
fractional viability (10uM): 0.201

N=C(N)N [Guanidine HCl]
fractional viability (2uM): 1.17
fractional viability (10uM): 0.921

Cc1c(C(N)=O)cc([N+](=O)[O-])cc1[N+](=O)[O-] [Dinitolmide]
fractional viability (2uM): 1.05
fractional viability (10uM): 0.794

COc1cc(/C=C/C(=O)N2CCC=CC2=O)cc(OC)c1OC [Piperlongumine]
fractional viability (2uM): 0.31
fractional viability (10uM): 0.085

CCc1nc(-c2cccc(C)c2)c(-c2ccnc(NC(=O)c3ccccc3)c2)s1
fractional viability (2uM): 1.05
fractional viability (10uM): 0.807

Cc1cccc(C)c1NC(=O)C1CCCCN1C (centres undefined) [Mepivacaine HCl]
fractional viability (2uM): 0.998
fractional viability (10uM): 0.962

CN1C(C(=O)Nc2ccccn2)=C(O)c2sccc2S1(=O)=O [Tenoxicam]
fractional viability (2uM): 1.06
fractional viability (10uM): 1.09

Cc1ncc([N+](=O)[O-])n1CC(O)CCl (centres undefined) [Ornidazole]
fractional viability (2uM): 1.21
fractional viability (10uM): 1.61

FC(F)(F)c1ccc(CNc2ccc(Cc3c[nH]c4ncc(Cl)cc34)cn2)cn1 [Pexidartinib (PLX3397)]
fractional viability (2uM): 0.884
fractional viability (10uM): 0.953

O=C(Nc1ccccc1)c1ccccc1O [Salicylanilide]
fractional viability (2uM): 0.98
fractional viability (10uM): 1.04

Cn1c(=O)c2[nH]cnc2n(C)c1=O [Aminophylline]
fractional viability (2uM): 1.04
fractional viability (10uM): 0.967

CS(=O)(=O)c1ccc(C2=C(c3ccccc3)C(=O)OC2)cc1 [Rofecoxib]
fractional viability (2uM): 0.94
fractional viability (10uM): 1.03

CC(=O)c1cc([N+](=O)[O-])c(Sc2cccc(Cl)c2Cl)s1
fractional viability (2uM): 0.895
fractional viability (10uM): 0.2

Cc1ccnc2c1NC(=O)c1cccnc1N2C1CC1 [Nevirapine]
fractional viability (2uM): 1.05
fractional viability (10uM): 1.14

CN(C)CCC=C1c2ccccc2CCc2ccccc21 [Amitriptyline HCl]
fractional viability (2uM): 1.04
fractional viability (10uM): 0.895

Cc1[nH]c(=O)c(C#N)cc1-c1ccncc1 [Milrinone]
fractional viability (2uM): 1.06
fractional viability (10uM): 0.966

CC(C)[C@H](CO)Nc1nc(Nc2cccc(Cl)c2)c2ncn(C(C)C)c2n1 [Purvalanol A]
fractional viability (2uM): 0.818
fractional viability (10uM): 0.388

NC(=O)c1ncn([C@@H]2O[C@H](CO)[C@@H](O)[C@H]2O)n1 [Ribavirin]
fractional viability (2uM): 1.06
fractional viability (10uM): 0.804

O=C(NCc1ccncc1)C12CC3CC(C1)CC(c1ccc(Cl)cc1)(C3)C2
fractional viability (2uM): 1.06
fractional viability (10uM): 0.861

CCOC(=O)[C@H](CCc1ccccc1)N[C@@H](C)C(=O)N1[C@H](C(=O)O)C[C@@H]2CCC[C@@H]21 [Ramipril]
fractional viability (2uM): 1.04
fractional viability (10uM): 0.89

Cc1ccc(S(=O)(=O)n2c(N)nc3ccccc32)cc1 [ML130 (Nodinitib-1)]
fractional viability (2uM): 1.22
fractional viability (10uM): 0.875

NCC(=O)Nc1ccc(-n2nc(C(F)(F)F)cc2-c2ccc3c(ccc4ccccc43)c2)cc1
fractional viability (2uM): 0.93
fractional viability (10uM): 0.174

COc1ccc(-c2nc3cc(C4=NNC(=O)CC4C)ccc3[nH]2)cc1 (centres undefined) [Pimobendan]
fractional viability (2uM): 0.78
fractional viability (10uM): 0.946

NS(=O)(=O)c1cc2c(cc1Cl)N=CNS2(=O)=O [Chlorothiazide]
fractional viability (2uM): 1.1
fractional viability (10uM): 1.15

COc1ccc(-c2cnc3c(-c4cccc5ncccc45)cnn3c2)cc1
fractional viability (2uM): 1.15
fractional viability (10uM): 1.2

CNS(=O)(=O)Cc1ccc2[nH]cc(CCN(C)C)c2c1 [Sumatriptan Succinate]
fractional viability (2uM): 1.06
fractional viability (10uM): 1.19

O=c1c(O)c(-c2ccc(O)c(O)c2)oc2cc(O)ccc12 [Fisetin]
fractional viability (2uM): 1.06
fractional viability (10uM): 0.956

COc1cc2ncnc(Oc3cccc(NC(=O)Nc4cc(C(C)(C)C(F)(F)F)on4)c3)c2cc1OC
fractional viability (2uM): 0.807
fractional viability (10uM): 0.778

O=C(COc1ccc(Cl)cc1)NC1CCC(NC(=O)COc2ccc(Cl)cc2)CC1 (stereo not drawn) [ISRIB (trans-isomer)]
fractional viability (2uM): 1.09
fractional viability (10uM): 0.976

CC1=C(C(=O)OC(C)C)C(c2cccc([N+](=O)[O-])c2)C(C(=O)OC2CN(C(c3ccccc3)c3ccccc3)C2)=C(N)N1 (centres undefined) [Azelnidipine]
fractional viability (2uM): 0.87
fractional viability (10uM): 0.597

Cc1cc(C2CCCCC2)n(O)c(=O)c1 [Ciclopirox ethanolamine]
fractional viability (2uM): 0.773
fractional viability (10uM): 0.482

Cc1cc(C2CCCCC2)n(O)c(=O)c1 [Ciclopirox]
fractional viability (2uM): 0.726
fractional viability (10uM): 0.519

COc1cc(C(=O)NS(=O)(=O)c2ccccc2C)ccc1Cc1cn(C)c2ccc(NC(=O)OC3CCCC3)cc12 [Zafirlukast]
fractional viability (2uM): 1.1
fractional viability (10uM): 1.1

CN[C@H]1CN(c2ccc3c(=O)c(C(=O)O)cn(-c4nccs4)c3n2)C[C@@H]1OC [Voreloxin (SNS-595)]
fractional viability (2uM): 0.699
fractional viability (10uM): 0.63

CCc1cncnc1N1CCN(Cc2nc3ccc(C(F)(F)F)cc3[nH]2)CC1
fractional viability (2uM): 0.848
fractional viability (10uM): 0.869

O=C(O)c1cc(=O)c2ccccc2o1 [Chromocarb]
fractional viability (2uM): 0.872
fractional viability (10uM): 0.816

NS(=O)(=O)c1cc(C(=O)O)c(NCc2ccco2)cc1Cl [Furosemide]
fractional viability (2uM): 1.16
fractional viability (10uM): 1.16

CCOc1cc([C@@H](CS(C)(=O)=O)N2C(=O)c3cccc(NC(C)=O)c3C2=O)ccc1OC
fractional viability (2uM): 0.859
fractional viability (10uM): 0.899

CC(C)C[C@@H]1NC(=O)[C@@H](C(C)C)NC(=O)[C@@H]2CCCN2C(=O)[C@@H](CC(=O)O)NC(=O)[C@@H](Cc2c[nH]c3ccccc23)NC1=O
fractional viability (2uM): 0.722
fractional viability (10uM): 0.866

CN(C)C(=O)COC(=O)Cc1ccc(OC(=O)c2ccc(NC(=N)N)cc2)cc1 [Camostat Mesilate]
fractional viability (2uM): 1.03
fractional viability (10uM): 0.994

N=C(N)NC(=O)c1nc(Cl)c(N)nc1N [Amiloride HCl]
fractional viability (2uM): 1.01
fractional viability (10uM): 0.973

Nc1ccccc1NC(=O)c1ccc(CNC(=O)OCc2cccnc2)cc1 [Entinostat (MS-275)]
fractional viability (2uM): 0.478
fractional viability (10uM): 0.242

CCCCOc1c(C(=O)c2c(F)cc(C)cc2F)c[nH]c2nncc1-2
fractional viability (2uM): 1.25
fractional viability (10uM): 0.403

O=[N+]([O-])c1ccc2c(c1)S(=O)(=O)C=C2 [Stattic]
fractional viability (2uM): 0.33
fractional viability (10uM): 0.124

CCCCCCCCC/C(=C\C1=C(C)C(=O)C(OC)=C(OC)C1=O)C(=O)O
fractional viability (2uM): 0.843
fractional viability (10uM): 0.862

CC[C@H]1OC(=O)[C@H](C)[C@@H](O[C@H]2C[C@@](C)(OC)[C@@H](O)[C@H](C)O2)[C@H](C)[C@@H](O[C@@H]2O[C@H](C)C[C@H](N(C)C)[C@H]2O)[C@](C)(OC)C[C@@H](C)C(=O)[C@H](C)[C@@H](O)[C@]1(C)O [Clarithromycin]
fractional viability (2uM): 1.03
fractional viability (10uM): 1

CN(C)CC[C@H](CSc1ccccc1)Nc1ccc(S(=O)(=O)NC(=O)c2ccc(N3CCN(Cc4ccccc4-c4ccc(Cl)cc4)CC3)cc2)cc1[N+](=O)[O-]
fractional viability (2uM): 0.906
fractional viability (10uM): 0.667
